Test results as given in article PMC9303552 (Angewandte Chemie (International Ed. in English), 2022).

Target: T1, GST-CHIP (carboxyl terminus of Hsp70 interacting protein, full length) (human, UniProt Q9UNE7 1-303)
T1 sequence (looked up): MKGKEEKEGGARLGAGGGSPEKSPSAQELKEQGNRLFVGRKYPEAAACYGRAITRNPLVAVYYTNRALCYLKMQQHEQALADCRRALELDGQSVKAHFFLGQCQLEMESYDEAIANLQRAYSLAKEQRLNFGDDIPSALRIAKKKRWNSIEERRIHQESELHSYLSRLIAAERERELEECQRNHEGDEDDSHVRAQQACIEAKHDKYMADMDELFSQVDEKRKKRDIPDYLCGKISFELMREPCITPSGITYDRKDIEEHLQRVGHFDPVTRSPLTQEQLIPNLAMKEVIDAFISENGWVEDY
Assay: NMR titration

binding result: binds
B1: […] (domain or fragment)
chain: not shown
